Results from PubChem BioAssay (NCI).
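All cell lines were grown in 96-well plates and treated with compound for 48 hours. GI50: concentration for 50% inhibition of growth. TGI marks complete inhibition of growth.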

System: NCI-H322M lung
Experiment: inhibition of tumour cell growth, NCI panel, 48 h

Row | Compound | GI50 [µM] | TGI [µM]
1 | CCc1cccc2c3c(sc12)C(c1ccc(Cl)cc1)C(C#N)=C(/N=C/c1ccc(Cl)cc1)O3 (centres undefined) | 2.47 | > 50
2 | Cc1ccc2c(n1)C(=O)C(Cl)=C(Nc1ccc(C(F)(F)F)cc1)C2=O | > 100 | > 100
